# Reference: ChEMBL document CHEMBL1201862, “PubChem BioAssay data set” (2004)
#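 Dose response: 5 concentrations. Exposure: 48 h. Format: 96-well plates. Endpoint: linear interpolation; highest concentration if not reached. GI50 is the concentration that inhibits growth by half.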 Calls of active or inactive are those of the source. Rule as the data show it: active = GI50 up to about 1.1 µM and inactive = higher.
# Tested on: NCI-H322M
# Assay: NCI anticancer screen, dose series, 48 h
row,SMILES,GI50
1,Cc1ccc(-c2cn3c(nc4ccccc43)c(-c3ccccc3)n2)cc1,inactive: > 100 µM
2,Nc1ccccc1.O=P(O)(O)c1ccccc1,inactive: > 100 µM
3,CC(C)CC1[C@@H](OCc2ccccc2)COS(=O)N1Cc1ccccc1 (stereo partly specified),inactive: 91.6 µM
4,Cc1cc2c(cc1Cl)Sc1nnc(C)n1S2(=O)=O,inactive: 15.1 µM
5,CC1=C(C(=O)Nc2cccc(C(F)(F)F)c2)C(c2ccc(O)cc2)C(C(=O)Nc2cccc(C(F)(F)F)c2)=C(C)N1,inactive: 23.8 µM
6,C/C1=C/C2=CC(C)C[C@@H]2C(=O)[C@]2(C)C(=O)CC(C)(C)[C@H]2CC1=O (stereo partly specified),inactive: > 50 µM
7,CC1(C)C(c2ccccc2)C12CCC1(C2=O)C(c2ccccc2)C1(C)C (stereo unspecified),inactive: 34.9 µM
8,CC1=C2CCCC2C/C(=N/Nc2ccc([N+](=O)[O-])cc2[N+](=O)[O-])CC1 (stereo unspecified),inactive: > 100 µM
9,c1ccc(C2C(=P(c3ccccc3)(c3ccccc3)c3ccccc3)P=PC2[P+](c2ccccc2)(c2ccccc2)c2ccccc2)cc1.c1ccc([B-](c2ccccc2)(c2ccccc2)c2ccccc2)cc1 (stereo unspecified),inactive: 1.35 µM
10,Nc1nc(Cl)nc(NCc2ccccc2)n1,inactive: > 100 µM
11,CC1(C)C(=O)N(O)C(C)(C)N1N=O,inactive: > 10 µM
12,COc1ccc(C2=Nc3ccccc3SC(C)C2)cc1 (stereo unspecified),inactive: > 100 µM
13,OC1C#CCSCC#C/C=C\1 (stereo unspecified),inactive: > 100 µM
14,C/C(=N\O)c1ccc(OCc2cc(C(F)(F)F)cc(C(F)(F)F)c2)cc1,inactive: > 100 µM
15,O=C1N2Cc3c4ccc5c3CN3C(=O)N6Cc7c(ccc(c7CN1C6(c1ccccc1)C23c1ccccc1)OCCOCCNCCOCCO4)OCCOCCNCCOCCO5 (stereo unspecified),inactive: 25.1 µM
16,O=c1[nH]nc(Cc2ccc(Cl)cc2)n1/N=C/c1c[nH]c2ccccc12,inactive: > 100 µM
17,O=C1CCCc2cc3c(cc21)CC1(Cc2ccccc2C1)C3,inactive: 3.88 µM
18,CNc1ccc(C)cc1S(=O)(=O)c1ccccc1[N+](=O)[O-],inactive: > 100 µM

row,SMILES,GI50
1,Cc1ccc(NC(=O)C(=O)Cc2cc[n+]([O-])cc2)cc1,inactive: > 100 µM
2,O=S(=O)(N/N=C\c1c2ccccc2[n+]([O-])c2ccccc12)c1ccc(Cl)cc1,inactive: > 100 µM
3,COc1ccc(-c2c3c(n(C4OC(CO)C(O)C(O)C4O)c(=S)c2C#N)CC(C)(C)CC3=O)cc1 (stereo unspecified),inactive: > 100 µM
4,COc1ccc2nc3ccc(OC)cc3c(SCc3ccc([N+](=O)[O-])cc3)c2c1,inactive: > 100 µM
5,O=C1C(=Cc2ccccc2O)N=C(c2ccccc2)N1n1c(-c2ccccc2)nc2ccccc2c1=O,inactive: 36.4 µM
6,Cc1ccc(/N=C2\SC(=NN(C)C)S\C2=N/c2ccc(C)cc2)cc1,inactive: > 100 µM
7,O=[N+]([O-])c1cc(Cl)ccc1S(=O)(=O)c1cc(Cl)cc2c1NCCC2,inactive: 55.7 µM
8,ClC/C=C/COC1CCCCO1 (stereo unspecified),inactive: > 100 µM
9,COc1ccc2c(c1)N(C(C)=O)CN1C(=O)CCC21 (stereo unspecified),inactive: > 100 µM
10,O=C1CCCC1CN1CCCC1 (stereo unspecified),inactive: > 100 µM
11,O=C1OC(OC/C(Br)=C(/Br)COC2OC(=O)C(Cl)=C2Cl)C(Cl)=C1Cl (stereo unspecified),inactive: 23.8 µM
12,Cc1c(N2CCOCC2)nc2ccc(Cl)cc2c1-c1ccccc1,inactive: > 100 µM
13,CN(CCCN(C)Cc1ccc(Cl)c(Cl)c1)CCN1CCCC1,inactive: 15.6 µM
14,O=C(C1OC1c1ccc(O)cc1)C12CC3CC(CC(C3)C1)C2 (stereo unspecified),inactive: > 100 µM
15,Cn1c(=O)oc2cc(C(=O)CN3CCN(Cc4ccc5c(c4)OCO5)CC3)c(Cl)cc21,inactive: > 100 µM
16,CC(=O)N/C(=C\c1ccc(/C=C(\NC(C)=O)C2=NC3C(=O)c4ccccc4C(=O)C3N2)cc1)C1=NC2C(=O)c3ccccc3C(=O)C2N1 (stereo unspecified),inactive: 12.4 µM
17,COC(=O)C1[C@@H](C(=O)OC)C12C=Cc1ccccc1C=C2 (stereo partly specified),inactive: > 100 µM
18,NS(=O)(=O)c1ccc(/C=C/c2ccc(F)cc2)cc1,inactive: 34.1 µM
